The supplement of paper PMC10126150
Sequences with one replicate were seen in a single cluster, so their values are uncertain.

Tested on: ATP
Experiment: switch fluorescence ratio, 500 uM ATP over buffer (Cy3 cluster intensity, sum of 5 cycles each) (fold (ratio)); higher = stronger signal-on switching upon ATP binding; sequences stand for … in TCGTCGGCAGCGTCAGATGTGTATAAGAGACAGTTTTTTTTTTTTTTTTTTTTTTTTT…TC
Conditions: aptamer strand: ATP DNA aptamer (quencher-CACCTGGGGGAGTATTGCGGAGGAAGG + anchor), 100 nM annealed; ATP concentration: 500 uM; one replicate
How it was run: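 After annealing to 100 nM quencher-labelled ATP aptamer, Cy3-labelled switching-strand clusters on a modified Illumina MiSeq flow-cell were imaged in selection buffer. A second image followed after 15 min with 500 uM ATP at 22 °C, and five such buffer/ATP cycles were done, each separated by NaOH stripping and re-annealing. The fluorescence ratio, averaged per switch-domain sequence, is summed target-cycle over summed buffer-cycle Cy3 intensity per cluster, with clusters outside 100-1000 RFU excluded.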
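Also: ATP exposure 15 min at 22 °C before imaging.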

Row | Sequence | switch fluorescence ratio
1 | CATGTATAAC | 0.983
2 | CATGTCGCCG | 1.02
3 | CATGTCGTCT | 1.05
4 | CATGTGCCCG | 1.05
5 | CATGTGCCGC | 1.01
6 | CATGTTAACT | 1.04
7 | CATGTTAAGC | 1.11
8 | CATTAATTAG | 1.03
9 | CATTACGTGA | 1
10 | CATTACTAAA | 1.02
11 | CATTACTCGC | 1.35
12 | CATTAGCGTG | 1.03
13 | CATTAGGGAG | 1.01
14 | CATTATGAGT | 1.03
15 | CATTATGTCC | 1.01
16 | CATTATTGAA | 1.04
17 | CATTATTTT | 0.979
18 | CATTCACTC | 1.07
19 | CATTCATTGG | 0.994
20 | CATTCCAATT | 1.07
21 | CATTCCCTA | 1.01
22 | CATTCCCTAT | 0.991
23 | CATTCCCTGT | 0.993
24 | CATTCGCAGG | 4.44
25 | CATTCTATCT | 1.03
26 | CATTCTTCGT | 1

Row | Sequence | switch fluorescence ratio
27 | CATTGAGCAA | 3.55
28 | CATTGAGTGG | 0.965
29 | CATTGCCGAA | 0.988
30 | CATTGCGAGT | 0.992
31 | CATTGCGCAT | 1.26
32 | CATTGCGGAT | 1
33 | CATTGCTTGC | 1.08
34 | CATTGGACGA | 0.984
35 | CATTGGATGA | 0.975
36 | CATTGGCAC | 1.09
37 | CATTGGCTAC | 2.15
38 | CATTGTCACG | 1.03
39 | CATTGTGTCG | 1.1
40 | CATTTAATGA | 1
41 | CATTTACAAC | 1
42 | CATTTACGGG | 1
43 | CATTTATACG | 1.01
44 | CATTTATCAC | 0.984
45 | CATTTATTAT | 0.962
46 | CATTTCTCAG | 1.01
47 | CATTTGGCTA | 1.4
48 | CATTTTACGG | 0.989
49 | CATTTTCTGT | 1.05
50 | CCAAAAACGT | 1.05
51 | CCAAAAATGG | 1.05
52 | CCAAACAAGA | 1.03

Row | Sequence | switch fluorescence ratio
53 | CCAAACGATG | 0.986
54 | CCAAATAACG | 1.05
55 | CCAAATGCAC | 1.57
56 | CCAAATGCAG | 1.1
57 | CCAACAGGGC | 1.5
58 | CCAACAGTTT | 1.03
59 | CCAACCTTTG | 1.09
60 | CCAACGATGA | 1.2
61 | CCAACGTCAC | 2.75
62 | CCAAGCCTGC | 1.23
63 | CCAAGCTGCA | 1.32
64 | CCAAGGATTT | 0.981
65 | CCAAGGGTTC | 1.02
66 | CCAAGTGGGG | 1.02
67 | CCAATACGGG | 1.64
68 | CCAATGCCCA | 1.05
69 | CCAATGGAGC | 1.02
70 | CCAATGGATC | 1.03
71 | CCACATCGGG | 0.978
72 | CCACATGGA | 1.02
73 | CCACCGTATA | 4.97
74 | CCACGCCATA | 1.93
75 | CCACGCCTAA | 1.49
76 | CCACGCGGTA | 1.72
77 | CCACGGGCAC | 1.5
78 | CCACGGGTGG | 1.02

Row | Sequence | switch fluorescence ratio
79 | CCACGTTATA | 1.36
80 | CCACTAAGGA | 1
81 | CCACTAGAAG | 1
82 | CCACTCGTTT | 1.03
83 | CCACTGAT | 0.98
84 | CCACTGATTG | 0.993
85 | CCACTGTAGG | 1.09
86 | CCACTGTTGT | 0.973
87 | CCACTTACTT | 1.23
88 | CCACTTGGTA | 1.02
89 | CCAGAAATT | 0.943
90 | CCAGAACGCT | 1.11
91 | CCAGACAA | 1.16
92 | CCAGACTTGG | 0.981
93 | CCAGAGTGCG | 1.08
94 | CCAGATCGCA | 1.18
95 | CCAGCATGTT | 1.05
96 | CCAGCATTCG | 1.18
97 | CCAGCGAGTC | 1.43
98 | CCAGCGCTCA | 1.37
99 | CCAGCGTTTT | 1.01
100 | CCAGCTACTA | 1.24
101 | CCAGCTGGGG | 1.01
